Several values for one entry are separate records, joined by “and”; a condition that tells them apart may be missing. Identical values can stand only once. In all, about 390,000 compounds went through this assay and about 150 (0.038%) were called active. Another 3% or so got no clear call; they are omitted. Calls come from the whole dose curve; as a rule, active = well fitted inhibition curve with a large enough effect; inconclusive = small, poorly fitted or top-dose-only effect; inactive = no such curve, though single readings can be large or run the other way. This is a selection; strong and weak results do not stand in their true shares. Some compounds were tested as several samples or in several runs, with calls that do not always agree.
Target: Regulator of G-protein signaling 4 (Homo sapiens) (UniProt P49798)
Experiment: Inhibitors of Regulator of G Protein Signaling (RGS) 4: qHTS; note: nearly all actives have a fitted effect of over 75% in size
Conditions: Transcreener GDP fluorescence polarization, RGS4-accelerated GTP hydrolysis; series mostly up to 114 µM; activity change, negative = inhibition: at the top concentration
Text: G-protein-coupled receptors (GPCRs) are well-established targets for drug discovery and development. Members of the "regulator of G-protein signaling" (RGS)-protein superfamily have recently emerged as critical modulators of specific GPCR signaling pathways. […] Combining specific RGS domain inhibitors with existing GPCR agonists should potentiate cellular responses and could also increase the specificity of action of existing therapeutics. Small molecule modulators of RGS domain activity should also have clinical utility in inhibiting or potentiating the actions of endogenous GPCR agonists. In particular, the diversity of RGS proteins with highly localized and dynamically regulated distributions in the human brain makes this family of proteins attractive targets for pharmacotherapy of central nervous system (CNS) disorders such as Parkinson's disease, schizophrenia, and anxiety.
This assay was used to screen the NIH Molecular Libraries Small Molecule Repository (MLSMR) in order to identify a small molecule that inhibits RGS4.
NIH Chemical Genomics Center [NCGC]
NIH Molecular Libraries Probe Centers Network [MLPCN]
Assay Submitter (PI): David Siderovski, University of North Carolina Chapel Hill (School of Medicine)
Two microliters of 500nM (2x working concentration) is dispensed into black medium-binding solid-bottom Kalypsys plates. Then with the Kalypsys pintool 23nl of control and compounds are transferred; the control compound is […] CCG-4986 (working concentration). After a 10 minute incubation at room temperature 2ul of antibody is added with the Kalypsys dispenser; (-)RGS4/Transcreener GDP solution in columns 3 and 4 which consisted of 10nM (2x working concentration) Alexa633, 20uM GTP, and 20 ug/ml GDP antibody and (+)RGS4/Transcreener GDP solution in columns 1,2, and 5 to 48 which consists of 900nM RGS4 (2x working concentration), 10nM Alexa633, 20 ug/ml GDP antibody. The plate is centrifuged at 1000 RPM for 15 seconds to remove any possible bubbles and then incubated for 5 minutes at ambient room temperature. An initial fluorescent polarization read (620 nm/688 nm) is performed on the Envision before the plate is incubated for 90 minutes at 30 deg C at a relative humidity of 80%. The plate is once more centrifuged at 1000 RPM for 15 seconds and another Envision fluorescent polarization (620 nm/688 nm) read is carried out.
% is set by controls: 0 for no effect and ±100 for the full control effect; potency is the fitted concentration of half-maximal effect.

Chain of UniProt P49798 (P49798 whole entry, looked up): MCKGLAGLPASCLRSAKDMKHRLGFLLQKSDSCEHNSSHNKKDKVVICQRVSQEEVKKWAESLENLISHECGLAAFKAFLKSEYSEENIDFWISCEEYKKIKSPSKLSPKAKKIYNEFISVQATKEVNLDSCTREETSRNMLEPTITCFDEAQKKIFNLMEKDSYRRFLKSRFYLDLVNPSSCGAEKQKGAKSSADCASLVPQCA

| Structure (SMILES) | activity change, negative = inhibition | Potency |
| --- | --- | --- |
| CCN(CCn1cccn1)C(=O)c1cc(COc2cccc3cccnc23)on1 | inactive: 54.7% | – |
| C[N+](C)(C)CCCCCC[N+](C)(C)C | – | inactive |
| O=C(c1cccc(F)c1)N1CCCC(C(=O)N2CCCC2)C1 (centres undefined) | inactive: 56.2% | – |
| CN(c1ccccc1)S(=O)(=O)c1ccc(NC(=O)c2nc(S(C)(=O)=O)ncc2Cl)cc1 | inactive: -103% | – |
| Cn1c(=O)cc(OCCCC(=O)NCc2ccccn2)c2ccccc21 | inactive: 66.1% | – |
| C=Cc1c(C)c2cc3[nH]c(cc4nc(cc5nc(cc1[nH]2)C(C)=C5CCC(=O)O)C(CCC(=O)O)=C4C)c(C)c3C=C | – | active: 9.47 µM |
| CCCN1C[C@H](CSC)C[C@@H]2c3cccc4[nH]cc(c34)C[C@H]21 | – | inactive |
| O=C(Nc1cccc(Cl)c1)c1cnc[nH]1 | inactive: -12.8% | – |
| CSc1ccc2c(c1)C(N1CCN(C)CC1)Cc1ccccc1S2 (centres undefined) | – | inactive |
| CN(C)CCCN1c2ccccc2Sc2ccccc21 | inactive: -1.91% | – |
| O=C1C2C(C(=O)N1CCN1CCN(Cc3ccc([N+](=O)[O-])cc3)CC1)[C@H]1C=C[C@@H]2C1 (some centres undefined) | inactive: 19.6% | – |
| CC1=C(CC(=O)O)c2cc(F)ccc2/C1=C\c1ccc(S(C)=O)cc1 (centres undefined) | inactive: -29.8% | – |
| COc1ccc(NC(=O)Cn2nnc(C(=O)Nc3ccc(F)c(Cl)c3)c2N)cc1OC | – | inactive |
| S=C(S)OC1CC2CC1C1CCCC21 (centres undefined) | – | inactive |
| COc1cccc2c1C(=O)c1c(O)c3c(c(O)c1C2=O)C[C@@](O)(C(=O)CO)C[C@@H]3O[C@H]1C[C@H](N)[C@H](O)[C@H](C)O1 | inactive: 5.48% | – |
| COc1ccccc1C(=O)N/C(=C\c1ccc(Br)cc1)C(=O)N1CCCC1 | inactive: 0.629% | – |
| O=C(O)c1cccc2c1-c1ccc(Cl)cc1C2 | inactive: 107% | – |
| CC(C)NC(=O)Nc1cccc2c1O[C@@H](CN(C)S(=O)(=O)c1ccc(F)cc1)[C@@H](C)CN([C@H](C)CO)C2=O | inactive: 7.01% | – |
| COc1ccccc1N1CCN(CCN(C(=O)C2CCCCC2)c2ccccn2)CC1 | – | inactive |
| O=C(N/N=C/C=C/c1ccco1)c1cccs1 | inactive: -53.8% | – |
| Nc1ncnc2c1ncn2[C@@H]1O[C@H](CO)[C@@H](O)[C@H]1O | – | inactive |
| O=C1OC[C@@H]2CCCN2C(=O)[C@@H](CC(=O)N(CCO)Cc2ccccc2)C/C=C\C[C@H]1Cc1ccc(F)cc1 | inactive: 17.7% | – |

| Structure (SMILES) | activity change, negative = inhibition | Potency |
| --- | --- | --- |
| OCC[C@@H]1C[C@H](O)[C@@H](O)[C@]2(OCCc3ccccc32)O1 | inactive: 12.4% | – |
| COC(=O)C1=C(C)NC2=C(C(=O)CC(c3cccs3)C2)C1c1ccsc1 (centres undefined) | inactive: 67.1% | – |
| O=S(=O)(/N=C(\Sc1ccc(Cl)cc1)c1ccccc1)c1ccccc1 | inactive: -41.2% | – |
| CN(C)CCOC(c1ccccc1)c1ccccc1 | – | inactive |
| O=C(Nc1ccnn1C1CCN(Cc2ccccc2OC(F)F)CC1)c1cccnc1 | inactive: 70% | – |
| CC(C)NC[C@@H](O)c1ccc(O)c(O)c1 | inactive: -34.3% | – |
| CC1CC2C3CCC4=CC(=O)C=CC4(C)C3(F)C(O)CC2(C)C1(O)C(=O)CO (centres undefined) | inactive: 7.25% | – |
| COCC1CCN(C(=O)C2CCN(c3nc(-c4ccccc4)nc4c3CCC4)CC2)C1 (centres undefined) | inactive: 56% | – |
| CC1CC2C3CCC4=CC(=O)C=C[C@]4(C)[C@@]3(F)[C@@H](O)C[C@]2(C)[C@@]1(O)C(=O)CO (some centres undefined) | inactive: 13.2% [at 56.9 µM] | – |
| CC(C1=C(CCN(C)C)Cc2ccccc21)c1ccccn1 (centres undefined) | inactive: -9.13% | – |
| O=c1[nH]c(=S)[nH]c(-c2ccccc2)c1Cc1c(O)ccc2ccccc12 | – | active: 2.12 µM |
| CCc1c(C)[nH]c2c1C(=O)C(CN1CCOCC1)CC2 (centres undefined) | inactive: 5.3% | – |
| COc1ccc(-c2cc(NCCc3ccncc3)n3ncnc3n2)cc1 | inactive: 54.3% | – |
| CN1CCc2cc(Cl)c(O)cc2[C@@H](c2ccccc2)C1 | – | inactive |
| Nc1ccc(N2C(=O)c3ccccc3C2=O)c(Cl)c1 | – | inactive |
| O=C(NCc1ccco1)[C@@H]1CCCN1C(=O)c1cccs1 | inactive: 55.5% | – |
| CC1=C(/C=C/C(C)=C/C=C/C(C)=C/C(=O)O)C(C)(C)CCC1 | inactive: -13.7% | – |
| CCCC1=NN(c2ccc([N+](=O)[O-])cc2)C(=O)/C1=C/N(C)C | inactive: 26.6% | – |
| N[C@@H](Cc1c[nH]c2ccc(O)cc12)C(=O)O | – | active: 23.8 µM |
| CCN1CCN(Cc2ccc(NC(=O)c3ccc(C)c(NC(=O)C(=O)c4c[nH]c5ccccc45)c3)cc2C(F)(F)F)CC1 | inactive: -12% | – |
| COc1ccc(-c2ccoc2)cc1C1C2C=CCC(C)C2C(=O)N1Cc1ccccc1 (centres undefined) | inactive: -50.2% | – |
| CC1CCN(C(=O)CCS(=O)(=O)c2cc3c(cc2Cl)NC(=O)CO3)CC1 | inactive: 16.4% | – |

| Structure (SMILES) | activity change, negative = inhibition | Potency |
| --- | --- | --- |
| Oc1ccc2ccccc2c1SSc1c(O)ccc2ccccc12 | – | active: 1.68 µM |
| C[C@@](N)(C(=O)O)c1ccc(C(=O)O)cc1 | inactive: -31.7% [at 56.9 µM] | – |
| CN(C)CC(O)Cn1c2ccc(Br)cc2c2cc(Br)ccc21 (centres undefined) | – | active: 0.67 µM |
| CCCCCCCCCCCCCCCC(O)C(N)CO (centres undefined) | inactive: -18.2% | – |
| Cc1ccccc1NC(=S)NCCc1ccccn1 | inactive: 65.1% | – |
| N[C@@H]1CONC1=O | inactive: 14.2% [at 56.9 µM] | – |
| Cc1ccc(S(=O)(=O)N[C@@H](Cc2ccccc2)C(=O)CCl)cc1 | – | active: 7.52 µM |
| CCOC(=O)N1CCN(/[N+]([O-])=N/Oc2ccc([N+](=O)[O-])cc2[N+](=O)[O-])CC1 | inactive: -36.7% | – |
| O=C1O/C(=C/C(=O)N2CCOCC2)c2ccccc21 | inactive: -4.78% | – |
| Cc1c(C(=O)NN2CCCCC2)nn(-c2ccc(Cl)cc2Cl)c1-c1ccc(I)cc1 | – | inactive and active: 29.9 µM |
| CC(=O)[C@@]1(O)CC[C@H]2[C@@H]3C[C@H](C)C4=CC(=O)C=C[C@]4(C)[C@@]3(F)[C@@H](O)C[C@@]21C | inactive: 18% | – |
| CCCn1c(=O)[nH]c(=O)c2[nH]cnc21 | – | inactive |
| Cn1c(=O)[nH]c2ncn(C)c2c1=O | – | inactive |
| C1COC(NC(C2CC2)C2CC2)=N1 | inactive: -1.66% | – |
| CC(=O)[C@H](CC(C)C)NC(=O)[C@@H](CC(C)C)NC(=O)[C@H](CC(C)C)NC(=O)OCc1ccccc1 | – | active: 8.44 µM |
| CCOCCCNC(=O)C(c1ccc(C)cc1)N(Cc1ccc2c(c1)OCO2)C(=O)CNC(C)=O (centres undefined) | inactive: 56% | – |
| OCC[C@H]1C[C@H](O)[C@@H](O)[C@@]2(CCc3ccccc3CO2)O1 | inactive: 0.168% | – |
| CCCc1nnc(NC(=O)CCC(=O)NCc2ccccc2Cl)s1 | inactive: 58.8% | – |
| CCOC(=O)/C(=C\c1ccc(OC(F)F)cc1)C1=Nn2c(nnc2-c2ccc(Cl)cc2)SC1 | inactive: -25.3% | – |
| CC(C)(C)c1ccc(S(=O)(=O)/C=C\C#N)cc1 | inactive: -163% [at 56.9 µM] | – |
